# Source: the supplement of paper PMC12217912
# The other results are listed elsewhere or left out. The full chains were built here from the parent and the listed change. Values near 0.05 are background.
# B1: TEV protease; numbered along this chain (parent)
# chain: MGESLFKGPRDYNPISSSICHLTNESDGHTTSLYGIGFGPFIITNKHLFRRNNGTLVVQSLHGVFKVKDTTTLQQHLVDGRDMIIIRMPKDFPPFPQKLKFREPQREERICLVTTNFQTKSMSSMVSDTSCTFPSGDGIFWKHWIQTKDGQCGSPLVSTRDGFIVGIHSASNFTNTNNYFTSVPKNFMELLTNQEAQQWVSGWRLNADSVLWGGHKVFMVKPEEPFQPVKEATQL
# Variants of: B1
# Assay: raw area under fraction-flipped curve 0-4 h after induction (AUC4h, not background-subtracted), DNA-recorder readout of cleavage of the substrate (dimensionless); higher = more cleavage of the substrate by the protease variant
# Details: temperature: 34 °C; time window: 0-4 h after rhamnose induction
# Protocol: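 In vivo DNA recorder in E. coli TOP10(DE3) ΔrhaA at 34 °C. Each TEVp single-site mutant (parent TEVp 0) is paired with a single-site variant of the 7-mer TEVs (canonical ENLYFQ|S). The substrate sits between flexible linkers in a Bxb1-sfGFP-TEVs-SsrA fusion, so cleavage stabilises Bxb1 and speeds flipping of a recombination array, read by NGS. The value is the raw area under the fraction-flipped curve over 0-4 h after rhamnose induction (AUC4h), with ≥20 reads per time point. It is not background-subtracted; inactive controls average about 0.047.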
# 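Also: Bxb1 expression induced with 0.2% (w/v) L-rhamnose at OD600 near 0.5, cultures sampled hourly, flipped fraction per protease–substrate barcode pair counted by paired-end Illumina sequencing.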
Variant,area with substrate ENAYFQS,area with substrate ENCYFQS,area with substrate ENDYFQS,area with substrate ENEYFQS,area with substrate ENFYFQS,area with substrate ENGYFQS,area with substrate ENHYFQS,area with substrate ENIYFQS,area with substrate ENNYFQS,area with substrate ENQYFQS,area with substrate ENRYFQS,area with substrate ENSYFQS,area with substrate ENTYFQS,area with substrate ENVYFQS,area with substrate ENKYFQS,area with substrate ENPYFQS,area with substrate ENMYFQS,area with substrate ENWYFQS,area with substrate ENYYFQS
L77E,0.081,0.0611,0.0635,0.0707,0.0623,0.0583,0.0485,0.0716,0.0484,0.063,0.0606,0.0655,0.0612,0.0543,–,–,–,–,–
L77W,0.0525,0.0774,0.0483,–,0.031,–,–,–,–,0.0734,–,–,–,0.0535,0.0498,0.0422,–,–,–
D79A,0.0833,0.0669,0.0648,–,0.0695,–,0.0504,–,–,–,0.0559,–,–,–,–,0.0432,0.0867,0.06,0.0578
D79H,0.0576,–,0.0585,–,–,–,0.0834,–,0.0502,0.0658,–,–,–,0.0751,0.0302,0.0635,0.0543,–,–
R81F,0.068,0.056,0.088,0.0538,0.0574,0.0838,0.0649,0.076,0.0554,–,0.0438,–,0.0598,–,–,0.0602,0.107,–,–
R81K,0.0556,–,0.0639,0.0646,–,0.0401,0.0775,0.0903,–,0.0629,–,0.067,–,–,–,–,0.0548,–,–
R81M,0.0513,0.0408,0.0647,0.0606,0.0577,0.0633,0.0594,–,0.0513,0.0612,0.0611,0.0628,0.0481,0.0719,0.0652,–,0.0755,0.0417,0.13
D82G,0.0456,0.0669,0.0675,0.0606,0.0575,0.0463,–,–,0.0559,0.0626,–,0.0671,0.0576,0.0511,0.0621,0.0532,0.0453,–,–
D82R,0.0521,–,–,–,–,–,–,–,0.0663,–,–,0.0724,0.0512,–,0.0599,–,–,–,–
M83C,0.053,0.0561,0.0675,0.0615,0.0616,0.0543,–,0.0787,0.0648,0.056,0.0593,0.0626,–,–,0.069,0.0646,0.0722,–,–
M83G,0.0531,–,0.0604,0.0488,0.048,0.0471,0.043,0.0693,0.0373,0.0571,0.0561,0.0709,–,0.0407,0.0558,0.0618,–,0.0587,0.0545
M83K,0.0451,0.0528,0.0492,0.0625,–,0.0505,–,–,0.0463,–,0.0548,0.0477,0.0642,0.0626,0.067,0.0522,0.0491,–,0.0205
I84F,0.0379,–,0.0654,–,0.0638,0.0476,0.0549,0.0703,0.0638,0.0597,0.0518,–,0.0593,–,–,0.0519,0.0669,–,–
I86W,0.0577,0.0539,0.0729,0.0506,0.053,–,0.0594,0.0715,0.0613,0.0554,0.0678,0.0637,0.0541,0.0537,0.0674,0.0585,0.0823,0.0385,–
P89H,0.0517,–,0.0612,–,0.0642,0.0512,–,0.0881,–,0.049,0.0715,0.0667,0.0526,0.0643,–,–,–,0.0451,–
D91W,0.0557,–,0.0393,–,0.059,0.0686,0.0616,0.113,0.0607,0.08,0.0629,0.0621,0.0596,0.0696,0.0583,0.0615,0.0908,–,0.0568
F92Y,0.0519,0.0485,0.0588,0.0634,0.0668,0.0593,0.0428,0.155,–,0.065,–,0.0507,0.0521,0.0782,–,–,–,–,0.0614
P93A,0.0544,0.082,0.0552,0.0408,0.0685,0.0712,–,–,0.0598,0.0664,–,0.0654,–,0.0906,–,–,0.0085,0.0532,–
K98G,0.0592,–,0.0701,0.055,0.0592,0.0816,0.062,0.115,0.0623,–,0.0583,0.0696,0.0616,0.0887,0.0595,0.0582,0.0688,0.0045,–
K98T,0.053,–,0.0664,0.0654,0.0624,–,–,0.105,0.0542,0.0664,–,0.0576,–,0.0631,0.076,0.0645,0.0736,0.0581,0.0618
L99P,0.0689,0.0507,0.06,0.0722,0.0677,0.0511,0.0727,0.0801,–,0.0605,0.0639,–,0.0769,0.0801,–,0.0512,–,0.0518,–
K100F,0.0436,0.0679,0.0502,–,–,0.0661,0.0673,–,0.0432,0.0662,0.0752,0.0638,–,0.101,0.0646,0.0663,–,0.07,–
K100H,0.0572,0.0781,–,0.0661,–,–,0.0585,0.09,–,0.0574,–,0.0599,–,0.0699,0.0684,0.0536,–,0.003,–
K100I,0.0752,–,0.0722,–,0.0661,0.0562,0.0689,–,0.0616,0.0569,0.0615,0.0421,–,0.0636,0.0793,0.0705,–,–,–
E103H,0.0483,0.0589,0.0577,0.0518,0.0603,0.0685,–,0.0933,0.0568,0.0597,0.0705,0.0463,–,–,0.0586,0.0683,0.0679,–,0.0647
E103V,0.0681,0.0319,0.0629,0.0663,0.0527,0.0475,0.0585,–,0.0502,0.0582,0.0695,0.0531,0.0662,0.0788,–,–,–,–,–
Q105E,0.0554,–,0.0651,–,0.0724,–,–,0.103,0.0665,–,0.062,–,–,0.0957,0.0529,–,–,–,–
